This is an account of results in the supplement of paper PMC9334596.

Where “and” joins values, the source holds several entries; their conditions need not be identical. Equal values may be shown once. In all, about 5,300 compounds were measured (“PER2::LUC luminescence relative to vehicle control”: median about 0.96, highest 2% from about 1.3 on). This is one part of the list.

The experiment relates to mPer2Luc MEF. The experiment can be described thus: PER2::LUC luminescence relative to vehicle control (fold of vehicle); higher = higher PER2::LUC reporter signal. The settings on record: 10 µM. Put shortly:
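The value is PER2::LUC luminescence expressed as fold of vehicle control. Mouse embryonic fibroblasts carrying the mPer2Luc reporter were seeded at ~3000 cells per well in 384-well plates and grown in DMEM with 10% FBS at 37 °C and 5% CO2. Compounds from commercial libraries were added at 10 μM 48 h after seeding, and luminescence was read with the ONE-Glo luciferase assay system 24 h and 30 h after treatment, followed by an alamarBlue viability assay.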

For the molecule `CC(=O)O[C@]1(C(C)=O)CC[C@H]2[C@@H]3CCC4=CC(=O)CCC4=C3[C@@H](c3ccc(N(C)C)cc3)C[C@@]21C`, the “PER2::LUC luminescence” value (time after treatment 24 h) worked out at 0.911 and the “PER2::LUC luminescence” value (time after treatment 30 h) was found to be 0.861.
The like results for `COc1cc(C)c(Sc2cnc(NC(=O)c3ccc(CNC(C)C(C)(C)C)cc3)s2)cc1C(=O)N1CCN(C(C)=O)CC1` (stereo not given) were, in that order, 0.554 and 0.433.
`O=C(O)c1cc(C(F)(F)F)ccc1N1CC[C@H](OCc2ccccn2)C1`: the “PER2::LUC luminescence” value is, setting by setting: (time after treatment 24 h) 1.03; (time after treatment 30 h) 0.99.
The like results for `CC(=O)Nc1nc2c(Oc3cc(-c4ccc(C(F)(F)F)cc4)ncn3)cccc2s1` were, in that order, 0.944 and 0.971.
The like results for `O=C(O)Cc1nn(Cc2ccc(Br)cc2F)c(=O)c2ccccc12` were, in that order, 1.1 and 1.06.
The like results for `OCC1OC(n2cnc3c(NC4CCCCC4)ncnc32)C(O)C1O` (stereo not given) were, in that order, 0.986 and 1.02.
On to `N[C@@H](Cc1c[nH]c2ccc(O)cc12)C(=O)O`, for which the “PER2::LUC luminescence” value is 1.08 and 1.02 (time after treatment 24 h); 1.03 and 0.941 (time after treatment 30 h).
Take `CN1C[C@@H]2C[C@H]1CN2c1cc2c(cc1F)c(=O)c(C(=O)O)cn2C1CC1`: the “PER2::LUC luminescence” value is 0.856 (time after treatment 24 h) and 0.924 (time after treatment 30 h).
Turning to `N=C(N)Nc1ccc(C(=O)Oc2ccc3cc(C(=N)N)ccc3c2)cc1`, the “PER2::LUC luminescence” value (time after treatment 24 h) amounted to 1.05 and the “PER2::LUC luminescence” value (time after treatment 30 h) was found to be 1.
The like results for `CC(Cc1ccccc1)(NC(=O)CN)c1ccccc1` (racemic) were, in that order, 0.964 and 1.04.
The like results for `CCCCCCCCCCCCCCCC(=O)OC[C@@H](NC(=O)C(Cl)Cl)[C@H](O)c1ccc([N+](=O)[O-])cc1` were, in that order, 1.01 and 0.952.
The like results for `O=c1cnn([C@@H]2O[C@H](CO)[C@@H](O)[C@H]2O)c(=O)[nH]1` were, in that order, 1.41 and 1.5.
As to `CC12C=Cc3occc3C1CCC13CC(=O)C(CCC12)C3` (stereo not given), the “PER2::LUC luminescence” value is, setting by setting: (time after treatment 24 h) 0.973; (time after treatment 30 h) 0.929.
The like results for `Nc1cccc2c1C(=O)N(C1CCC(=O)NC1=O)C2=O` (stereo not given) were, in that order, 1.1 and 0.928.
With `COc1cc(O)c(C(=O)c2ccccc2)cc1S(=O)(=O)O`, the “PER2::LUC luminescence” value reads like this: (time after treatment 24 h) 1.13; (time after treatment 30 h) 0.948.
The like results for `Oc1ccc(OC2CCCCO2)cc1` (stereo not given) were, in that order, 1.05 and 1.01.
The like results for `CNCc1ccccc1` were, in that order, 0.963 and 0.906.
The like results for `C=C1C[C@@]23CC[C@H]4[C@@](C)(CCC[C@@]4(C)C(=O)O)[C@@H]2CC[C@]1(O)C3` were, in that order, 0.886 and 1.12.
`O=C(O)CCCCCCCCCCCC[C@@H]1C=CCC1`: the “PER2::LUC luminescence” value turned out to be 1.04 (time after treatment 24 h) and 1.03 (time after treatment 30 h).
The like results for `COc1cc(OC)c2c(=O)c(O)c(-c3ccc(OC)c(OC)c3)oc2c1` were, in that order, 0.853 and 0.967.
The like results for `CCCCN(CCCC)S(=O)(=O)c1ccc(C(=O)O)cc1` were, in that order, 0.899 and 1.04.
The like results for `COc1cc(C(=O)O)ccc1NC(=O)[C@@H]1N[C@@H](CC(C)(C)C)[C@](C#N)(c2ccc(Cl)cc2F)[C@H]1c1cccc(Cl)c1F` were, in that order, 1.26 and 0.931.
Take `COc1cc(O)c(C(C)=O)c(O)c1`: the “PER2::LUC luminescence” value (time after treatment 24 h) was 0.954 and the “PER2::LUC luminescence” value (time after treatment 30 h) worked out at 0.96.
The like results for `O=C(O)C(O)Cc1ccc(O)c(O)c1` (stereo not given) were, in that order, 0.979 and 0.802.
The like results for `Cc1cc(=O)oc2cc(O)c(O)cc12` were, in that order, 0.877 and 0.903.
